This note sets out measurements from publication PMC12820563, “FoxP3 forms a head-to-head dimer in vivo and stabilizes its multimerization on adjacent microsatellites”.

This is one part of the list.

The target of this assay is T1, MBP-FoxP1dN (Mus musculus, UniProt P58462 326-579).
T1 sequence: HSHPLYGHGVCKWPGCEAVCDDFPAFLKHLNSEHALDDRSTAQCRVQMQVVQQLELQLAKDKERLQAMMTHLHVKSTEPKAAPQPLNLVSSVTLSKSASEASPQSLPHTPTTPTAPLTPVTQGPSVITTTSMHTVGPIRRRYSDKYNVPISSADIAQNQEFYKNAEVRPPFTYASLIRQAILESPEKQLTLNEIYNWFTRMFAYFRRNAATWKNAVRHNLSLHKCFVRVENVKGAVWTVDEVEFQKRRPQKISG
In words: PD-seq (MBP pull-down with sequencing); 20 mM Tris-HCl pH 7.5, 100 mM NaCl, 1.5 mM MgCl2, 0.4 uM protein, 0.1 uM dsDNA library, 30 min, room temperature, amylose pull-down; high values mean tight binding. The conditions noted are these: protein: recombinant; tags: His6-MBP; chain copies: 2; dsDNA, one strand shown. Summed up: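 A degenerate double-stranded DNA library, filled in with Klenow, was added at 0.1 µM to 0.4 µM His6-MBP-tagged mouse FoxP3 or FoxP1 fragment lacking the N-terminus, expressed in E. coli. Incubation lasted 30 min at room temperature in Tris pH 7.5 buffer with NaCl and MgCl2, after which complexes were collected on amylose resin, washed three times, digested with proteinase K to free the DNA, barcoded by PCR and sequenced by Illumina. Binding is the pooled-replicate reads-per-million enrichment of pull-down over input.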
Consider “GATGATTGTTCTCCCAGCTGATGAATTCGCGATGTCGAGTAAACAAATTTTCCTAATCTTTCTGTTCAAGCGCCATCTAC”, for which the binding signal is 0.962 RPM ratio (pull-down/input).

As to “GATGATTGTTCTCCCAGCTGATGAATTACTTTTCTCGAGTAAACAAATTTTCCTAATCTTTCTGTTCAAGCGCCATCTAC”, the binding signal was 1.1 RPM ratio (pull-down/input).

As to “GATGATTGTTCTCCCAGCTGATGAATTAGTCCTATCGAGTAAACAAATTTTCCTAATCTTTCTGTTCAAGCGCCATCTAC”, the binding signal was 0.933 RPM ratio (pull-down/input).

As for “GATGATTGTTCTCCCAGCTGATGAATTAAGCGACTCGAGTAAACAAATTTTCCTAATCTTTCTGTTCAAGCGCCATCTAC”, the binding signal was 0.552 RPM ratio (pull-down/input).

Turning to “GATGATTGTTCTCCCAGCTGATGAATTGGGTGCTTCGAGTAAACAAATTTTCCTAATCTTTCTGTTCAAGCGCCATCTAC”, the binding signal is 0.861 RPM ratio (pull-down/input).

As for “GATGATTGTTCTCCCAGCTGATGAATTTAACTCATCGAGTAAACAAATTTTCCTAATCTTTCTGTTCAAGCGCCATCTAC”, the binding signal was 0.912 RPM ratio (pull-down/input).

As for “GATGATTGTTCTCCCAGCTGATGAATTGCCGAGATCGAGTAAACAAATTTTCCTAATCTTTCTGTTCAAGCGCCATCTAC”, the binding signal is 0.887 RPM ratio (pull-down/input).

Turning to “GATGATTGTTCTCCCAGCTGATGAATTGCTCTCCTCGAGTAAACAAATTTTCCTAATCTTTCTGTTCAAGCGCCATCTAC”, the binding signal was 0.853 RPM ratio (pull-down/input).

Consider “GATGATTGTTCTCCCAGCTGATGAATTTACCAGGTCGAGTAAACAAATTTTCCTAATCTTTCTGTTCAAGCGCCATCTAC”, for which the binding signal is 1.04 RPM ratio (pull-down/input).

On to “GATGATTGTTCTCCCAGCTGATGAATTTAGTAGATCGAGTAAACAAATTTTCCTAATCTTTCTGTTCAAGCGCCATCTAC”, for which the binding signal is 0.978 RPM ratio (pull-down/input).

“GATGATTGTTCTCCCAGCTGATGAATTCTGTCCTTCGAGTAAACAAATTTTCCTAATCTTTCTGTTCAAGCGCCATCTAC”: the binding signal is 0.894 RPM ratio (pull-down/input).

Turning to “GATGATTGTTCTCCCAGCTGATGAATTATGGTAGTCGAGTAAACAAATTTTCCTAATCTTTCTGTTCAAGCGCCATCTAC”, the binding signal is 0.994 RPM ratio (pull-down/input).

In the case of “GATGATTGTTCTCCCAGCTGATGAATTCCAAATTTCGAGTAAACAAATTTTCCTAATCTTTCTGTTCAAGCGCCATCTAC”, the binding signal was 0.833 RPM ratio (pull-down/input).

Consider “GATGATTGTTCTCCCAGCTGATGAATTGGGCAAGTCGAGTAAACAAATTTTCCTAATCTTTCTGTTCAAGCGCCATCTAC”, for which the binding signal is 0.81 RPM ratio (pull-down/input).

Consider “GATGATTGTTCTCCCAGCTGATGAATTTCTGTACTCGAGTAAACAAATTTTCCTAATCTTTCTGTTCAAGCGCCATCTAC”, for which the binding signal is 0.909 RPM ratio (pull-down/input).

Turning to “GATGATTGTTCTCCCAGCTGATGAATTATCACGATCGAGTAAACAAATTTTCCTAATCTTTCTGTTCAAGCGCCATCTAC”, the binding signal was 0.895 RPM ratio (pull-down/input).

In the case of “GATGATTGTTCTCCCAGCTGATGAATTCCTCGAATCGAGTAAACAAATTTTCCTAATCTTTCTGTTCAAGCGCCATCTAC”, the binding signal is 0.891 RPM ratio (pull-down/input).

As for “GATGATTGTTCTCCCAGCTGATGAATTCTTAATCTCGAGTAAACAAATTTTCCTAATCTTTCTGTTCAAGCGCCATCTAC”, the binding signal was 0.925 RPM ratio (pull-down/input).

On to “GATGATTGTTCTCCCAGCTGATGAATTCCAGGGTTCGAGTAAACAAATTTTCCTAATCTTTCTGTTCAAGCGCCATCTAC”, for which the binding signal is 0.729 RPM ratio (pull-down/input).

For “GATGATTGTTCTCCCAGCTGATGAATTCAACGATTCGAGTAAACAAATTTTCCTAATCTTTCTGTTCAAGCGCCATCTAC”, the binding signal is 0.92 RPM ratio (pull-down/input).

For the sequence “GATGATTGTTCTCCCAGCTGATGAATTCGTTACTTCGAGTAAACAAATTTTCCTAATCTTTCTGTTCAAGCGCCATCTAC”, the binding signal was 1.01 RPM ratio (pull-down/input).

On to “GATGATTGTTCTCCCAGCTGATGAATTGAAATAGTCGAGTAAACAAATTTTCCTAATCTTTCTGTTCAAGCGCCATCTAC”, for which the binding signal was 0.87 RPM ratio (pull-down/input).

With “GATGATTGTTCTCCCAGCTGATGAATTGGTCATCTCGAGTAAACAAATTTTCCTAATCTTTCTGTTCAAGCGCCATCTAC”, the binding signal was 0.855 RPM ratio (pull-down/input).

“GATGATTGTTCTCCCAGCTGATGAATTGGCTCGCTCGAGTAAACAAATTTTCCTAATCTTTCTGTTCAAGCGCCATCTAC”: the binding signal is 0.79 RPM ratio (pull-down/input).

Regarding “GATGATTGTTCTCCCAGCTGATGAATTAAAAGCGTCGAGTAAACAAATTTTCCTAATCTTTCTGTTCAAGCGCCATCTAC”, the binding signal was 1.09 RPM ratio (pull-down/input).

As to “GATGATTGTTCTCCCAGCTGATGAATTCAATGCATCGAGTAAACAAATTTTCCTAATCTTTCTGTTCAAGCGCCATCTAC”, the binding signal is 1.26 RPM ratio (pull-down/input).

As to “GATGATTGTTCTCCCAGCTGATGAATTGGCCTCTTCGAGTAAACAAATTTTCCTAATCTTTCTGTTCAAGCGCCATCTAC”, the binding signal is 0.917 RPM ratio (pull-down/input).

Regarding “GATGATTGTTCTCCCAGCTGATGAATTCCACAAATCGAGTAAACAAATTTTCCTAATCTTTCTGTTCAAGCGCCATCTAC”, the binding signal was 1.06 RPM ratio (pull-down/input).

As to “GATGATTGTTCTCCCAGCTGATGAATTCGTTGGTTCGAGTAAACAAATTTTCCTAATCTTTCTGTTCAAGCGCCATCTAC”, the binding signal is 0.85 RPM ratio (pull-down/input).

As to “GATGATTGTTCTCCCAGCTGATGAATTTCGGCTTTCGAGTAAACAAATTTTCCTAATCTTTCTGTTCAAGCGCCATCTAC”, the binding signal is 0.853 RPM ratio (pull-down/input).

Regarding “GATGATTGTTCTCCCAGCTGATGAATTGTCTAGATCGAGTAAACAAATTTTCCTAATCTTTCTGTTCAAGCGCCATCTAC”, the binding signal was 0.981 RPM ratio (pull-down/input).
